Source: PubChem BioAssay AID256 (DTP/NCI, 2004)
Inconclusive results and toxic doses are left out. A number of entries come with more than one value. The list is limited to them. An entry can have further records. The records of an entry do not match, cause unknown; they may come from other doses, times, organisms or constructs than stated.

Tested on: CD2F1 mice, L1210 leukemia ip, survival T/C
Test: NCI In Vivo Anticancer Drug Screen. Data for tumor model L1210 Leukemia (intraperitoneal) in CD2F1 (CDF1) mice
Conditions: endpoint: mean survival time; dose: 150.0 mg/kg/injection; schedule: Q04DX003 (ip); vehicle: saline; higher = longer survival
Method: The antitumor activity of compounds was measured in mice bearing transplantable tumors. Survival or tumor size were measured and the results are expressed as the measurement made in the treated group (T) divided by the measurement made in the vehicle treated control group (C). The tumor model used in this assay is L1210 Leukemia (intraperitoneal) in CD2F1 (CDF1) mice

In the case of CCn1cnc2c(=S)nc[nH]c21, the T/C is reported as 123 % of control and 151 % of control.
